In the supplement of paper PMC4967469:

What was measured:
Assay in all cases: Viability of human cancer cell lines after 72 h of drug (GDSC screen)
Tamoxifen = compound: CC/C(=C(\c1ccccc1)c1ccc(OCCN(C)C)cc1)c1ccccc1 [Tamoxifen]; settings: top dose 5 µM
Experimental: (§1)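 Human cancer cell lines in 384-well plates, medium with 10% serum, drug for 72 h over a 256-fold dose range (nine 2-fold or five 4-fold steps up to the top dose). Adherent lines were fixed and stained with the nucleic acid dye Syto60, suspension lines read with resazurin; signal relative to control wells, capped at 0 and 100%. One two-parameter sigmoid per drug and line, fitted in a mixed model over all curves with the slope shared within a line.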

VNLG/124 = compound: CCCC(=O)OCc1ccc(OC(=O)/C=C(C)/C=C/C=C(C)/C=C/C2=C(C)CCCC2(C)C)cc1 [VNLG/124]; settings: top dose 5.12 µM; top dose inferred
Experimental: as §1

Elesclomol = compound: CN(NC(=O)CC(=O)NN(C)C(=S)c1ccccc1)C(=S)c1ccccc1 [Elesclomol]; settings: top dose 0.2 µM; top dose inferred
Experimental: as §1

HG-5-88-01 = compound: COc1cc(N2CCC(C(N)=O)CC2)ccc1Nc1nc(N)c(Cl)c(Nc2ccccc2S(=O)(=O)C(C)C)n1 [HG-5-88-01]; settings: top dose 10 µM; top dose inferred
Experimental: as §1

Bleomycin = compound: Cc1c(N)nc([C@H](CC(N)=O)NC[C@H](N)C(N)=O)nc1C(=O)N[C@H](C(=O)N[C@H](C)[C@@H](O)[C@H](C)C(=O)N[C@H](C(=O)NCCc1nc(-c2nc(C(=O)NCCC[S+](C)C)cs2)cs1)[C@@H](C)O)[C@@H](OC1OC(CO)C(O)C(O)C1OC1OC(CO)C(O)C(OC(N)=O)C1O)c1cnc[nH]1 [Bleomycin]
Experimental: as §1

Masitinib = compound: Cc1ccc(NC(=O)c2ccc(CN3CCN(C)CC3)cc2)cc1Nc1nc(-c2cccnc2)cs1 [Masitinib]; settings: top dose 20 µM
Experimental: as §1

LAQ824 = compound: O=C(/C=C/c1ccc(CN(CCO)CCc2c[nH]c3ccccc23)cc1)NO [LAQ824]; settings: top dose 1.024 µM; top dose inferred
Experimental: as §1

OSI-930 = compound: O=C(Nc1ccc(OC(F)(F)F)cc1)c1sccc1NCc1ccnc2ccccc12 [OSI-930]; settings: top dose 10.24 µM
Experimental: as §1

BX-912 = compound: O=C(Nc1cccc(Nc2ncc(Br)c(NCCc3cnc[nH]3)n2)c1)N1CCCC1 [BX-912]; settings: top dose 10.24 µM; top dose inferred
Experimental: as §1

NSC-87877 = compound: O=S(=O)(O)c1ccc2cc(N=Nc3cc(S(=O)(=O)O)c4cccnc4c3O)ccc2c1 [NSC-87877]; settings: top dose 16 µM; top dose inferred
Experimental: as §1

[1] = top dose 50 µM, screen: GDSC drug entry 1378, top dose inferred
[2] = top dose 64 µM, screen: GDSC drug entry 190

| Cell Line | AUC (Tamoxifen) | IC50 (Tamoxifen) [µM] | AUC (VNLG/124) | IC50 (VNLG/124) [µM] | AUC (Elesclomol) | IC50 (Elesclomol) [µM] | AUC (HG-5-88-01) | IC50 (HG-5-88-01) [µM] | AUC (Bleomycin; [1]) | IC50 (Bleomycin; [1]) [µM] | AUC (Bleomycin; [2]) | IC50 (Bleomycin; [2]) [µM] | AUC (Masitinib) | IC50 (Masitinib) [µM] | AUC (LAQ824) | IC50 (LAQ824) [µM] | AUC (OSI-930) | IC50 (OSI-930) [µM] | AUC (BX-912) | IC50 (BX-912) [µM] | AUC (NSC-87877) | IC50 (NSC-87877) [µM] |
| --- | --- | --- | --- | --- | --- | --- | --- | --- | --- | --- | --- | --- | --- | --- | --- | --- | --- | --- | --- | --- | --- | --- |
| Mo-T (hairy cell leukaemia, suspension) | 0.978 | > 5 | 0.973 | > 5.12 | 0.439 | 0.00849 | 0.952 | > 10 | 0.578 | 5.13 | 0.903 | > 64 | 0.865 | 18.3 | 0.865 | 0.937 | 0.945 | > 10.2 | 0.96 | > 10.2 | 0.976 | > 16 |
| SW48 (large intestine, adherent) | 0.982 | > 5 | 0.979 | > 5.12 | 0.831 | 0.126 | 0.722 | 2.65 | 0.405 | 1.72 | 0.203 | 0.532 | 0.975 | > 20 | 0.664 | 0.183 | 0.964 | > 10.2 | 0.614 | 1.32 | 0.982 | > 16 |
| NCI-H82 (small cell lung carcinoma, suspension) | 0.964 | > 5 | 0.973 | > 5.12 | 0.62 | 0.0263 | 0.965 | > 10 | 0.854 | 36.1 | 0.932 | > 64 | 0.98 | > 20 | 0.551 | 0.0873 | 0.989 | > 10.2 | 0.784 | 4.11 | 0.985 | > 16 |
| OVCAR-4 (ovary, adherent) | 0.965 | > 5 | 0.974 | > 5.12 | 0.411 | 0.00632 | 0.83 | > 10 | 0.764 | 27.4 | 0.509 | 4.29 | 0.948 | > 20 | 0.447 | 0.0427 | 0.966 | > 10.2 | 0.976 | > 10.2 | 0.977 | > 16 |
| MN-60 (B-cell leukaemia, suspension) | 0.96 | > 5 | 0.979 | > 5.12 | 0.855 | 0.17 | 0.957 | > 10 | 0.948 | > 50 | 0.501 | 4.03 | 0.858 | 17.5 | 0.535 | 0.0799 | 0.98 | > 10.2 | 0.89 | > 10.2 | 0.982 | > 16 |

Lines with a small IC50 respond at low doses; fits outside the tested doses are given as limits. The AUC spans the tested range (256-fold, ending at the top dose) of the same fit; it is 1 without any effect and falls as sensitivity rises. For some assays here: An inferred top dose is not printed in the source and was worked back from the curve model. For some assays here: An entry number marks a drug with two screens in the source, which often give different values.
